Data as given in publication PMC4336329 (PLoS ONE, 2015).
The campaign covered roughly 310,000 compounds. About 2,200 (0.71%) showed an effect of 50% or more. The effect is printed as a negative number. This is one part of the list.

molecular target: human ether-à-go-go-related gene (hERG) potassium channel (human, UniProt Q12809); assay: primary screen, population patch clamp on CHO cells stably expressing hERG
Sequence (Q12809 whole entry, looked up): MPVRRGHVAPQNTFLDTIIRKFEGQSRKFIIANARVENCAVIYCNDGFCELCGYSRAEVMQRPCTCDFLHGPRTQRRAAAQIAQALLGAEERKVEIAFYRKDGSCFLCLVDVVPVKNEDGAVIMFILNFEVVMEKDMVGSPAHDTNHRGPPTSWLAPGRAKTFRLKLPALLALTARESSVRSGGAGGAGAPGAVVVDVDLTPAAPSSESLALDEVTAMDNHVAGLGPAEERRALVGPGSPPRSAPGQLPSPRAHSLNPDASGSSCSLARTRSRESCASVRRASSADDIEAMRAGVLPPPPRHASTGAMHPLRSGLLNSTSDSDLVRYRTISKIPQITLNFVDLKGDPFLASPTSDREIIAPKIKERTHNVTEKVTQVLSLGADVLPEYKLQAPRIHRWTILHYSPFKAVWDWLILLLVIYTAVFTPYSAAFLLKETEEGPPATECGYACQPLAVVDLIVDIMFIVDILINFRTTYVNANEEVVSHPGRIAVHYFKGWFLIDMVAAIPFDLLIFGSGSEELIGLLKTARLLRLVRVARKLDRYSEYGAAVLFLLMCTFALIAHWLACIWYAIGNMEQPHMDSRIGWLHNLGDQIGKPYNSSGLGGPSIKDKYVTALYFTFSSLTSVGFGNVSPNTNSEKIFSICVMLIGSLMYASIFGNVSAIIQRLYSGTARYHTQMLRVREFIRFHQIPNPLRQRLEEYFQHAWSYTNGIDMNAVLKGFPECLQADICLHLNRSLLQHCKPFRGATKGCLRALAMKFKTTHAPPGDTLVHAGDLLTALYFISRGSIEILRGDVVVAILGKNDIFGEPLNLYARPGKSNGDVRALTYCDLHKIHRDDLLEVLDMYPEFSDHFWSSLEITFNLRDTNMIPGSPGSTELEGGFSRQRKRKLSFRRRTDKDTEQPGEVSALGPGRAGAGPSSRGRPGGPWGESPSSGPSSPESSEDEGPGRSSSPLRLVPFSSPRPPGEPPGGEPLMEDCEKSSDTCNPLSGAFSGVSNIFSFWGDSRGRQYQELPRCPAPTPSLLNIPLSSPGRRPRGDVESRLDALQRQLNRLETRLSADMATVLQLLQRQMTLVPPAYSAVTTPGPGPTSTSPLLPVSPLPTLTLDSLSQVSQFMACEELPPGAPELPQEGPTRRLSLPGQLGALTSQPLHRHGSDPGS

Compound | hERG current change (%, negative = inhibition) at 1uM [%]
O=C(NCc1ccccc1)c1nncc(-c2ccccc2)n1 | 3.9
CSc1nc(-c2ccccc2)nc(NC(=O)c2ccccc2)c1C(C)=O | 10.8
Cn1nc(C(F)(F)F)c2cc(C(=O)Nc3ccc(Cl)cc3)sc21 | 6.22
CCOc1ccccc1-c1nnc(SCC(=O)Nc2ccccc2)o1 | 9.59
CCOc1ccc(S(=O)(=O)N(C)CC(=O)NCc2ccc3c(c2)OCO3)cc1 | -21.6
COCCN(CC(=O)Nc1cccc(C)c1C)C(=O)c1cc2ccccc2cc1OC | 3.27
O=C(O)c1ccccc1C(=O)O | 4.51
Cc1sc2ncn(CC(=O)NCCCN3CC(C)CC(C)C3)c(=O)c2c1S(=O)(=O)N1CC(C)CC(C)C1 (stereo not drawn) | 12.5
O=C(CSc1nnc(Cn2c(=O)sc3ccccc32)n1-c1ccccc1)NCc1ccco1 | -1.14
C/C=C\C(=O)Nc1cccc(C2=NOC3(C2)C[C@@H](C(N)=O)N(C(=O)CC(c2ccccc2)c2ccccc2)C3)c1 (stereo partly drawn) | 6.71
O=C(N/N=C/c1ccccc1C(=O)O)c1ccncc1 | 13.5
Br.C=CCn1c(C)csc1=Nc1ccc(C(=O)O)cc1 | 9.66
O=C(Cc1cccs1)NCCS(=O)(=O)N1CCN(c2cccc(Cl)c2)CC1 | -5.58
CC(C)(C)[C@H]1C=C(C(=O)Nc2ccccc2)O[C@@H](OCc2ccc(CO)cc2)C1 | 10.8
COC(=O)c1cc(NC(=O)Cn2c(=O)oc3ccccc32)cc(C(=O)OC)c1 | 26.2
CN(C)S(=O)(=O)c1cccc(COC(=O)CN2CCCCCC2=O)c1 | 11.4
COc1ccc(C(=O)NNC(=S)NC(=O)/C=C/c2cccs2)cc1 | 8.39
Cc1cc(C)cc(C(=O)Nc2nnc(SCC(=O)NCC3CCCO3)s2)c1 (stereo not drawn) | 14.5
COc1ccc(NC(=O)CN2C(=O)NC(c3ccccc3)(c3ccccc3)C2=O)cc1 | -33.1
COc1ccc(C2Nc3ccccc3C(=O)N2C2CCCCC2)cc1 (stereo not drawn) | 8.62
COc1ccc(S(=O)(=O)N2CCOCC2)cc1NC(=O)CSc1nnnn1C1CC1 | 4.58
COCC(=O)N(Cc1nc2ccccc2c(=O)[nH]1)Cc1cccs1 | 15.4
CCOc1ccccc1N1CCN(C(=S)Nc2ccc(S(N)(=O)=O)cc2)CC1 | 13.1

Compound | hERG current change (%, negative = inhibition) at 1uM [%]
COc1cccc(C(=O)C2CCCN(Cc3cnn(C(C)C)c3)C2)c1 (stereo not drawn) | -5.98
O=C(NC1=NCCS1)c1ccc(Cl)s1 | 19.4
CCOc1ccc(S(=O)(=O)NCc2ccc(F)cc2)c2cccnc12 | 7.59
COC(=O)c1cccc(Cn2c(Cl)c(/C=N/Nc3ccccc3C)sc2=O)c1 | 10.6
CC(C)CCNC(=O)NC(=O)COc1ncnc2sccc12 | 2.17
Cc1oc(-c2ccccc2F)nc1CS(=O)CC(=O)NC1CC1 (stereo not drawn) | 6.59
O=[N+]([O-])CC(c1ccccc1)P(=O)(c1ccccc1)c1ccccc1 (stereo not drawn) | 17.1
Cc1ccc(NS(=O)(=O)c2ccc(NC(=O)CSc3ccc(Cl)cc3)cc2)c(C)c1 | 8.51
NC(=S)N/N=C/c1cn(CCC(=O)O)nc1-c1cccc(Br)c1 | 18.7
CCOC(=O)CN1C(=O)SC(Nc2ccc(C)cc2)C1=O (stereo not drawn) | 26.8
Cc1oc(-c2ccc(Cl)cc2)nc1CN1CCC(C(=O)N2CCN(Cc3ccccc3)CC2)CC1 | -48.1
Cc1ccc(C(=O)COC(=O)C(C)N2C(=O)C3C4CCC(C4)C3C2=O)cc1 (stereo not drawn) | 5.06
CC1CC(C)CN(C(=O)C(Cc2ccccc2)n2cccc2)C1 (stereo not drawn) | 4.59
Cc1cccc(NC(=O)CN2C(=O)N/C(=C\c3ccc(-c4cccc(C(=O)O)c4)o3)C2=O)c1 | 19.3
O=C(Nc1ccc(Cl)cc1)Nc1ccccc1C(=O)O | 9.11
Cc1ccc(OCc2cc(C(=O)NCC(C)c3ccccc3)no2)cc1C (stereo not drawn) | 6.28
O=c1oc(-c2cccnc2)nc2ccccc12 | 9.53
CCOC(=O)CSC1=NC(=O)/C(=C\c2ccc(OC(C)=O)cc2)S1 | 6.32
O=C(/C=C/c1ccncc1)c1ccc2c(c1)OCCO2 | 6.41
CC(C)=CCN1CCN(Cc2cccn2-c2ccccn2)CC1CCO (stereo not drawn) | -19.9
COc1ccc(/C(N)=N/O)cc1O | 14.4
Cl.Oc1ccc(Cl)cc1CNCc1ccc(C(F)(F)F)cc1 | -0.514
COc1ccc(C(=O)Nc2ccc(S(=O)(=O)Nc3nccc(C)n3)cc2)cc1OC | 10

Compound | hERG current change (%, negative = inhibition) at 1uM [%]
Cc1cc(/C=N/N2CCN(C)CC2)c(C)n1-c1ccc(Cl)cc1 | 0.128
C=C(C)c1cccc(C(C)(C)NC(=O)NCCCn2ccnc2)c1 | 8.31
c1ccc(C2CC3CC4(CCCC4)N2O3)cc1 (stereo not drawn) | 7.75
CN1CCN(c2nc(-c3ccccc3)nc3c2oc2ccccc23)CC1 | 1.62
CC1(c2ccccc2)CC(C)(C)N(C(=O)C2CCCO2)c2ccccc21 (stereo not drawn) | 8.62
Cc1ccc(C(=O)N/C(=C\c2ccc(-c3ccc([N+](=O)[O-])cc3)o2)C(=O)NC2CCS(=O)(=O)C2)cc1 (stereo not drawn) | 10.8
CC(=O)Nc1cccc(N(C)S(C)(=O)=O)c1 | 4.72
COc1ccc(CN2CCNC(=O)C2CC(=O)N(C)Cc2ccon2)c(F)c1 (stereo not drawn) | 16.2
CNC(=O)/C(C#N)=C\c1cc(C)n(-c2ccc(N3CCOCC3)cc2)c1C | 9.89
CN1CCN(c2ccc(CNS(=O)(=O)c3ccsc3)cc2)CC1 | 4.42
Cc1nnc(SCC(=O)Nc2cccc(N)c2)n1-c1ccccc1 | 10.9
C=CCn1c(SC(C)C(=O)NC2CC2)nnc1-c1ccoc1C (stereo not drawn) | 6.23
CNC(=O)CSc1nnnn1-c1ccc(C)cc1C | 9.61
Cn1cc([N+](=O)[O-])c(C(=O)NCC(=O)O)n1 | 10.7
COc1cc(C(=O)OCC(=O)NCc2ccc(F)cc2)ccc1OCC(C)C | 7.86
Cc1ccsc1C(=O)OCC(=O)NCc1ccco1 | 13.9
Cl.O=C(N/N=C1/CN2CCC1CC2)c1cccc(O)c1 | 9.31
Cc1c(Br)c([N+](=O)[O-])nn1CC(=O)N1CCCc2ccccc21 | 14.9
Cc1cc2c(NC(=O)CCCC(=O)O)cccc2nn1 | 11.3
CC1=CCC(C(=O)O)C(C(=O)O)C1 (stereo not drawn) | 12.5
Cc1cccc(N(Cc2ccccc2)C(=O)CN2C(=O)NC3(CCCCC3C)C2=O)c1 (stereo not drawn) | 2.38
Cc1c(Cl)cccc1NC(=O)CN1CCN(CCN=CC2=C(O)CC(c3ccccc3)CC2=O)CC1 (stereo not drawn) | 12.8
COC(=O)C(CC(C)C)NC(=O)CSc1nc(-c2ccccc2)c(C#N)c(=O)[nH]1 (stereo not drawn) | -2.2

Compound | hERG current change (%, negative = inhibition) at 1uM [%]
Cc1c(C(=O)N/N=C/c2cccs2)nnn1-c1nonc1N | 10.4
COc1cccc(Oc2ccc(N)cn2)c1 | 5.57
Cc1cccnc1CCNC(=O)CCc1nnc(CCc2ccccc2)o1 | 5.84
CCCN(CC(=O)Nc1ccccc1C)C(=O)CCN1C(=O)c2cccc([N+](=O)[O-])c2C1=O | -2.29
COc1ccc(/C=C(\NC(=O)c2ccc(OC)cc2)C(=O)Nc2ccccc2C(=O)O)cc1 | 3.58
CC1(C)c2cc(Cl)ccc2-n2c1cc(O)c(-c1ccccc1)c2=O | 16.1
CCOC(=O)CSc1c(-c2ccc(Cl)cc2)[nH]c2ccccc12 | 1.02
CCOC(=O)C(C)c1c(C)[nH]c(=S)[nH]c1=O (stereo not drawn) | 10.8
CCCCn1c(N)c(N(CCC(C)C)C(=O)c2c(C)noc2C)c(=O)[nH]c1=O | 10.2
O=C(Nc1ncc([N+](=O)[O-])s1)C1CC(=O)N(c2ccc(F)cc2)C1 (stereo not drawn) | 5.93
CCC(CC)C(=O)NCCc1ccc(OC)cc1 | 12.7
COCCN(C(=O)C1CCCC1)c1c(N)n(Cc2ccccc2)c(=O)[nH]c1=O | 0.45
Cc1cccc(-n2nc3c(c2NC(=O)C2CC2)CS(=O)(=O)C3)c1C | 11.4
COc1ccc(C)cc1-n1[nH]nnc1=S | 8.77
Cc1occc(=O)c1OCc1ccc(Cl)cc1Cl | 6.19
O=C(CC1C(=O)NCCN1Cc1ccc(Cl)c(F)c1)NCCc1cccnc1 (stereo not drawn) | 4.11
COc1cc(/C=N/n2c(=S)[nH]nc(C)c2=O)cc([N+](=O)[O-])c1O | 16.7
CC(=O)NC1=NC(=O)CS1 | 2.84
COCCn1c(C)cc(C(=O)CSc2nc(C)nc3sc4c(c23)CCC4)c1C | 11.9
O=C(CCC(=O)NC1CCCCC1)N/N=C/c1ccncc1 | 12.8
O=C(CSc1nnnn1C1CCCCC1)Nc1ccccc1N1CCOCC1 | 10.4
